Results taken from the supplement of paper PMC4967469.
By IC50 is meant the dose at which the fit gives 50% viability; a limit (>, <) means that the fit lies beyond the doses tested. The AUC spans the tested range (256-fold, ending at the top dose) of the same fit; values near 1 show little effect. An inferred top dose is not printed in the source and was worked back from the curve model. For some assays here: An entry number marks a drug with two screens in the source, which often give different values.

Columns and labels:
Experiment in all cases: Viability of human cancer cell lines after 72 h of drug (GDSC screen)
[1] = compound: COc1cc(C(=O)NC2CCN(C)CC2)ccc1Nc1ncc2c(n1)N(C1CCCC1)CCC(=O)N2C(C)C [XMD11-85h]; conditions: top dose 10 µM; top dose inferred
Description: (§1)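 Human cancer cell lines in 384-well plates, medium with 10% serum, drug for 72 h over a 256-fold dose range (nine 2-fold or five 4-fold steps up to the top dose). Adherent lines were fixed and stained with the nucleic acid dye Syto60, suspension lines read with resazurin; signal relative to control wells, capped at 0 and 100%. One two-parameter sigmoid per drug and line, fitted in a mixed model over all curves with the slope shared within a line.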

[2] = compound: Cc1cc([C@@H](C)Nc2ccccc2C(=O)O)c2nc(N3CCOCC3)cc(=O)n2c1 [AZD6482]
Description: as §1

[3] = compound: Cn1ncnc1[C@H]1c2n[nH]c(=O)c3cc(F)cc(c23)N[C@@H]1c1ccc(F)cc1 [BMN-673]; conditions: top dose 10 µM; top dose inferred
Description: as §1

[4] = top dose 5 µM, screen: GDSC drug entry 1066, top dose inferred
[5] = top dose 5.12 µM, screen: GDSC drug entry 156

Row | Cell Line | AUC [1] | IC50 [1] [µM] | AUC [2, 4] | IC50 [2, 4] [µM] | AUC [2, 5] | IC50 [2, 5] [µM] | AUC [3] | IC50 [3] [µM]
1 | NUGC-4 (stomach, adherent) | 0.923 | > 10 | 0.977 | > 5 | 0.988 | > 5.12 | 0.79 | 4.45
2 | NY (osteosarcoma, adherent) | 0.976 | > 10 | 0.95 | > 5 | 0.909 | > 5.12 | 0.882 | > 10
3 | OACp4C (oesophagus, adherent) | 0.951 | > 10 | 0.965 | > 5 |  |  | 0.765 | 4.36
4 | OC-314 (ovary, adherent) | 0.941 | > 10 | 0.931 | > 5 |  |  | 0.428 | 0.41
5 | OCI-AML3 (acute myeloid leukaemia, suspension) | 0.863 | 6.73 | 0.957 | > 5 | 0.96 | > 5.12 | 0.835 | 5.29
6 | OE21 (oesophagus, adherent) | 0.841 | > 10 | 0.978 | > 5 | 0.93 | > 5.12 | 0.879 | > 10
7 | OV-7 (ovary, adherent) | 0.96 | > 10 | 0.765 | 2.82 |  |  | 0.803 | 8.44
8 | OV-56 (ovary, adherent) | 0.98 | > 10 | 0.914 | > 5 |  |  | 0.899 | > 10
9 | OV-90 (ovary, adherent) | 0.939 | > 10 | 0.916 | > 5 | 0.931 | > 5.12 | 0.91 | > 10
10 | OVCA433 (ovary, adherent) | 0.955 | > 10 | 0.884 | > 5 |  |  | 0.602 | 1.23
11 | OVCAR-8 (ovary, adherent) | 0.945 | > 10 | 0.935 | > 5 | 0.953 | > 5.12 | 0.468 | 0.516
12 | OVKATE (ovary, adherent) | 0.965 | > 10 | 0.972 | > 5 | 0.922 | > 5.12 | 0.896 | > 10
13 | OVTOKO (ovary, adherent) | 0.864 | > 10 | 0.698 | 1.33 | 0.726 | 1.71 | 0.866 | > 10
14 | PANC-02-03 (pancreas, adherent) | 0.931 | > 10 | 0.879 | > 5 | 0.924 | > 5.12 | 0.913 | > 10
15 | PCI-4B (head and neck, adherent) | 0.956 | > 10 | 0.91 | > 5 | 0.923 | > 5.12 | 0.413 | 0.367
16 | PCI-6A (head and neck, adherent) | 0.979 | > 10 | 0.942 | > 5 | 0.983 | > 5.12 | 0.889 | > 10
17 | PCI-30 (head and neck, adherent) | 0.959 | > 10 | 0.937 | > 5 | 0.947 | > 5.12 | 0.735 | 3.47
18 | PEO1 (ovary, adherent) | 0.929 | > 10 | 0.987 | > 5 |  |  | 0.799 | 5.02
19 | PFSK-1 (medulloblastoma, adherent) | 0.898 | > 10 | 0.986 | > 5 | 0.952 | > 5.12 | 0.773 | 4.15
20 | PL4 (pancreas, adherent) | 0.969 | > 10 | 0.953 | > 5 | 0.963 | > 5.12 | 0.863 | 9.12
21 | QGP-1 (pancreas, adherent) | 0.967 | > 10 | 0.977 | > 5 |  |  | 0.951 | > 10
22 | RCC-AB (kidney, adherent) | 0.96 | > 10 | 0.943 | > 5 |  |  | 0.775 | 5.22
23 | RCC-ER (kidney, adherent) | 0.922 | > 10 | 0.94 | > 5 |  |  | 0.822 | 6.76

Row | Cell Line | AUC [1] | IC50 [1] [µM] | AUC [2, 4] | IC50 [2, 4] [µM] | AUC [2, 5] | IC50 [2, 5] [µM] | AUC [3] | IC50 [3] [µM]
24 | RCC-FG2 (kidney, adherent) | 0.968 | > 10 | 0.386 | 0.139 |  |  | 0.89 | > 10
25 | RCC-JF (kidney, adherent) | 0.98 | > 10 | 0.33 | 0.0988 |  |  | 0.608 | 1.28
26 | RCC-JW (kidney, adherent) | 0.967 | > 10 | 0.616 | 0.659 |  |  | 0.573 | 0.997
27 | RCC-MF (kidney, adherent) | 0.968 | > 10 | 0.73 | 1.74 |  |  | 0.633 | 1.63
28 | RCM-1 (large intestine, adherent) | 0.979 | > 10 | 0.863 | > 5 | 0.982 | > 5.12 | 0.981 | > 10
29 | RERF-LC-KJ (lung adenocarcinoma, adherent) | 0.891 | > 10 | 0.955 | > 5 | 0.936 | > 5.12 | 0.93 | > 10
30 | RH-1 (rhabdomyosarcoma, adherent) | 0.966 | > 10 | 0.971 | > 5 | 0.992 | > 5.12 | 0.203 | 0.101
31 | RL95-2 (endometrium, adherent) | 0.932 | > 10 |  |  | 0.917 | > 5.12 | 0.847 | 7.22
32 | RPMI-7951 (melanoma, adherent) | 0.972 | > 10 | 0.895 | > 5 | 0.897 | > 5.12 | 0.768 | 3.63
33 | RVH-421 (melanoma, adherent) | 0.947 | > 10 | 0.803 | 3.63 | 0.84 | > 5.12 | 0.899 | > 10
34 | SBC-3 (small cell lung carcinoma, adherent) | 0.94 | > 10 | 0.973 | > 5 | 0.914 | > 5.12 | 0.712 | 2.32
35 | SCC90 (head and neck, adherent) | 0.964 | > 10 | 0.981 | > 5 | 0.859 | > 5.12 | 0.908 | > 10
36 | SF268 (glioma, adherent) | 0.97 | > 10 | 0.915 | > 5 | 0.862 | 4.95 | 0.654 | 1.73
37 | SF295 (glioma, adherent) | 0.962 | > 10 | 0.933 | > 5 | 0.764 | 2 | 0.623 | 1.4
38 | SJSA-1 (bone, adherent) | 0.961 | > 10 |  |  | 0.947 | > 5.12 | 0.898 | > 10
39 | SK-GT-4 (oesophagus, adherent) | 0.894 | > 10 | 0.966 | > 5 |  |  | 0.882 | > 10
40 | SK-MEL-5 (melanoma, adherent) | 0.954 | > 10 | 0.868 | > 5 |  |  | 0.851 | > 10
41 | SK-MEL-28 (melanoma, adherent) | 0.953 | > 10 |  |  | 0.931 | > 5.12 | 0.957 | > 10
42 | SK-MG-1 (glioma, adherent) | 0.976 | > 10 | 0.862 | 4.37 |  |  | 0.843 | 7.18
43 | SK-MM-2 (myeloma, suspension) | 0.904 | > 10 | 0.963 | > 5 | 0.947 | > 5.12 | 0.961 | > 10
44 | SK-N-AS (neuroblastoma, adherent) | 0.982 | > 10 | 0.972 | > 5 | 0.979 | > 5.12 | 0.855 | 9.95
45 | SK-N-DZ (neuroblastoma, adherent) | 0.819 | 5.59 | 0.807 | 2.52 | 0.947 | > 5.12 | 0.964 | > 10
46 | SK-N-SH (neuroblastoma, adherent) | 0.958 | > 10 | 0.929 | > 5 | 0.768 | 1.9 | 0.314 | 0.19

Row | Cell Line | AUC [1] | IC50 [1] [µM] | AUC [2, 4] | IC50 [2, 4] [µM] | AUC [2, 5] | IC50 [2, 5] [µM] | AUC [3] | IC50 [3] [µM]
47 | SKN (uterus, adherent) | 0.961 | > 10 | 0.727 | 1.6 | 0.629 | 0.783 | 0.81 | 6.65
48 | SNU-387 (liver, adherent) | 0.958 | > 10 | 0.964 | > 5 | 0.886 | > 5.12 | 0.82 | 6.78
49 | SNU-C2B (large intestine, adherent) | 0.919 | > 10 |  |  | 0.962 | > 5.12 | 0.853 | > 10
50 | STS-0421 (soft tissue, adherent) | 0.895 | > 10 | 0.884 | > 5 | 0.925 | > 5.12 | 0.598 | 1.21
51 | SU8686 (pancreas, adherent) | 0.955 | > 10 | 0.977 | > 5 | 0.963 | > 5.12 | 0.877 | > 10
52 | SW48 (large intestine, adherent) | 0.908 | > 10 | 0.938 | > 5 | 0.941 | > 5.12 | 0.633 | 1.45
53 | SW626 (ovary, adherent) | 0.949 | > 10 | 0.974 | > 5 | 0.908 | > 5.12 | 0.916 | > 10
54 | SW948 (large intestine, adherent) | 0.98 | > 10 | 0.971 | > 5 | 0.981 | > 5.12 | 0.98 | > 10
55 | SW1573 (lung adenocarcinoma, adherent) | 0.967 | > 10 | 0.81 | 3.83 | 0.895 | > 5.12 | 0.679 | 2.36
56 | SW1783 (glioma, adherent) | 0.988 | > 10 | 0.889 | 4.74 | 0.495 | 0.31 | 0.909 | > 10
57 | T84 (large intestine, adherent) | 0.988 | > 10 | 0.955 | > 5 | 0.986 | > 5.12 | 0.972 | > 10
58 | TE-4 (oesophagus, adherent) | 0.981 | > 10 | 0.985 | > 5 |  |  | 0.871 | 9.37
59 | TGBC1TKB (biliary tract, adherent) | 0.987 | > 10 | 0.632 | 0.722 | 0.89 | > 5.12 | 0.898 | > 10
60 | TK10 (kidney, adherent) | 0.939 | > 10 | 0.863 | > 5 | 0.931 | > 5.12 | 0.888 | > 10
61 | TMK-1 (stomach, adherent) | 0.945 | > 10 | 0.784 | 2.26 | 0.879 | > 5.12 | 0.767 | 3.93
62 | TOV-21G (ovary, adherent) | 0.98 | > 10 | 0.865 | > 5 | 0.985 | > 5.12 | 0.356 | 0.24
63 | TOV-112D (ovary, adherent) | 0.913 | > 10 | 0.926 | > 5 | 0.884 | > 5.12 | 0.681 | 2.02
64 | TT2609-C02 (thyroid, adherent) | 0.985 | > 10 | 0.957 | > 5 | 0.891 | > 5.12 | 0.945 | > 10
65 | TYK-nu (ovary, adherent) | 0.929 | > 10 | 0.925 | > 5 | 0.985 | > 5.12 | 0.471 | 0.517
66 | UACC-62 (melanoma, adherent) | 0.916 | > 10 | 0.732 | 1.42 | 0.804 | 2.52 | 0.829 | 6.14
67 | UACC-893 (breast, adherent) | 0.978 | > 10 | 0.703 | 1.43 | 0.773 | 2.7 | 0.961 | > 10
